# Data reported in the supplement of paper PMC8728848.
# This is one part of the list.
# Assays:
# Assay in all cases: glycan array binding signal (z-score within array); higher = stronger binding
# Conditions in all cases: glycan notation: IUPAC condensed, linker removed
# [1] = target: Gal(b1-3)GlcNAc(b1-2)Man(a1-3)[Gal(b1-3)GlcNAc(b1-2)Man(a1-6)]Man(b1-4)GlcNAc(b1-4)GlcNAc
# Method in brief: (§1)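 Glycan array binding is given as a within-array Z-score, which can be read as non-binding when negative. The arrays, 3228 of them, came from the Consortium for Functional Glycomics database and were retained only where the protein sequence was available. Z-scores were averaged across arrays of the same protein sequence at different concentrations or buffers and across linkers.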
# [2] = target: Gal(b1-3)GlcNAc(b1-2)Man(a1-3)[Gal(b1-3)GlcNAc(b1-2)Man(a1-6)]Man(b1-4)GlcNAc(b1-4)[Fuc(a1-6)]GlcNAc
# Method in brief: as §1
# [3] = target: Gal(b1-3)GlcNAc(b1-2)Man(a1-3)[GlcNAc(b1-4)][Gal(b1-3)GlcNAc(b1-2)Man(a1-6)]Man(b1-4)GlcNAc(b1-4)GlcNAc
# Method in brief: as §1
# [4] = target: Gal(b1-3)GlcNAc(b1-2)[Gal(b1-3)GlcNAc(b1-6)]Man(a1-6)[Gal(b1-3)GlcNAc(b1-2)Man(a1-3)]Man(b1-4)GlcNAc(b1-4)GlcNAc
# Method in brief: as §1
# [5] = target: Gal(b1-3)GlcNAc(b1-3)Gal(b1-3)GlcNAc
# Method in brief: as §1
# [6] = target: Gal(b1-3)GlcNAc(b1-3)Gal(b1-4)Glc
# Method in brief: as §1
# [7] = target: Gal(b1-3)GlcNAc(b1-3)Gal(b1-4)GlcNAc
# Method in brief: as §1
# [8] = target: Gal(b1-3)GlcNAc(b1-3)Gal(b1-4)GlcNAc(b1-2)Man(a1-3)[Gal(b1-3)GlcNAc(b1-3)Gal(b1-4)GlcNAc(b1-2)Man(a1-6)]Man(b1-4)GlcNAc(b1-4)GlcNAc
# Method in brief: as §1
# [9] = target: Gal(b1-3)GlcNAc(b1-3)Gal(b1-4)GlcNAc(b1-2)[Gal(b1-3)GlcNAc(b1-3)Gal(b1-4)GlcNAc(b1-6)]Man(a1-6)[Gal(b1-3)GlcNAc(b1-3)Gal(b1-4)GlcNAc(b1-2)Man(a1-3)]Man(b1-4)GlcNAc(b1-4)[Fuc(a1-6)]GlcNAc
# Method in brief: as §1
# [10] = target: Gal(b1-3)GlcNAc(b1-3)Gal(b1-4)GlcNAc(b1-3)Gal(b1-4)GlcNAc(b1-2)[Gal(b1-3)GlcNAc(b1-3)Gal(b1-4)GlcNAc(b1-3)Gal(b1-4)GlcNAc(b1-6)]Man(a1-6)[Gal(b1-3)GlcNAc(b1-3)Gal(b1-4)GlcNAc(b1-3)Gal(b1-4)GlcNAc(b1-2)Man(a1-3)]Man(b1-4)GlcNAc(b1-4)[Fuc(a1-6)]GlcNAc
# Method in brief: as §1
# [11] = target: Gal(b1-3)GlcNAc(b1-3)Gal(b1-4)GlcNAc(b1-6)[Gal(b1-3)GlcNAc(b1-3)]Gal(b1-4)Glc
# Method in brief: as §1
# [12] = target: Gal(b1-3)GlcNAc(b1-3)Gal(b1-4)[Fuc(a1-3)]GlcNAc
# Method in brief: as §1
# [13] = target: Gal(b1-3)GlcNAc(b1-3)Gal(b1-4)[Fuc(a1-3)]GlcNAc(b1-6)[Gal(b1-3)GlcNAc(b1-3)]Gal(b1-4)Glc
# Method in brief: as §1
# [14] = target: Gal(b1-3)GlcNAc(b1-3)GalNAc
# Method in brief: as §1
# [15] = target: Gal(b1-3)GlcNAc(b1-6)Gal(b1-4)GlcNAc
# Method in brief: as §1
# [16] = target: Gal(b1-3)GlcNAc(b1-6)GalNAc
# Method in brief: as §1
# [17] = target: Gal(b1-3)GlcNAc(b1-6)[Gal(b1-3)]GalNAc
# Method in brief: as §1
# Gal(b1-3)GlcNAc6S = target: Gal(b1-3)GlcNAc6S
# Method in brief: as §1
# [18] = target: Gal(b1-3)[Fuc(a1-4)]GlcNAc
# Method in brief: as §1
# [19] = target: Gal(b1-3)[Fuc(a1-4)]GlcNAc(b1-2)Man
# Method in brief: as §1
# [20] = target: Gal(b1-3)[Fuc(a1-4)]GlcNAc(b1-2)Man(a1-3)[Gal(b1-3)[Fuc(a1-4)]GlcNAc(b1-2)Man(a1-6)]Man(b1-4)GlcNAc(b1-4)[Fuc(a1-6)]GlcNAc
# Method in brief: as §1
# [21] = target: Gal(b1-3)[Fuc(a1-4)]GlcNAc(b1-3)Gal(b1-3)[Fuc(a1-4)]GlcNAc
# Method in brief: as §1
# [22] = target: Gal(b1-3)[Fuc(a1-4)]GlcNAc(b1-3)Gal(b1-4)[Fuc(a1-3)]GlcNAc
# Method in brief: as §1
# [23] = target: Gal(b1-3)[Fuc(a1-4)]GlcNAc(b1-6)GalNAc
# Method in brief: as §1
# [24] = target: Gal(b1-3)[GlcNAc(b1-6)]GalNAc
# Method in brief: as §1
# [25] = target: Gal(b1-3)[Neu5Ac(a2-6)]GalNAc
# Method in brief: as §1
# [26] = target: Gal(b1-3)[Neu5Ac(a2-6)]GlcNAc(b1-4)Gal(b1-4)Glc
# Method in brief: as §1
# [27] = target: Gal(b1-3)[Neu5Ac(b2-6)]GalNAc
# Method in brief: as §1
# Gal(b1-4)Gal = target: Gal(b1-4)Gal
# Method in brief: as §1
# [28] = target: Gal(b1-4)GalNAc(a1-3)[Fuc(a1-2)]Gal(b1-4)GlcNAc
# Method in brief: as §1
# [29] = target: Gal(b1-4)GalNAc(b1-3)[Fuc(a1-2)]Gal(b1-4)GlcNAc
# Method in brief: as §1
# Gal(b1-4)Glc = target: Gal(b1-4)Glc
# Method in brief: as §1
# Gal(b1-4)Glc6S = target: Gal(b1-4)Glc6S
# Method in brief: as §1
# Gal(b1-4)GlcNAc = target: Gal(b1-4)GlcNAc
# Method in brief: as §1
# [30] = target: Gal(b1-4)GlcNAc(a1-6)Gal(b1-4)GlcNAc
# Method in brief: as §1
# Gal(b1-4)GlcNAc(b1-2)Man = target: Gal(b1-4)GlcNAc(b1-2)Man
# Method in brief: as §1
# [31] = target: Gal(b1-4)GlcNAc(b1-2)Man(a1-3)Man(b1-4)GlcNAc(b1-4)GlcNAc
# Method in brief: as §1
# [32] = target: Gal(b1-4)GlcNAc(b1-2)Man(a1-3)[Gal(b1-4)GlcNAc(b1-2)Man(a1-6)]Man(b1-4)GlcNAc(b1-4)GlcNAc
# Method in brief: as §1
# [33] = target: Gal(b1-4)GlcNAc(b1-2)Man(a1-3)[Gal(b1-4)GlcNAc(b1-2)Man(a1-6)]Man(b1-4)GlcNAc(b1-4)[Fuc(a1-6)]GlcNAc
# Method in brief: as §1
# [34] = target: Gal(b1-4)GlcNAc(b1-2)Man(a1-3)[Gal(b1-4)GlcNAc(b1-2)Man(a1-6)][Gal(b1-4)GlcNAc(b1-4)]Man(b1-4)GlcNAc(b1-4)[Fuc(a1-6)]GlcNAc
# Method in brief: as §1
# [35] = target: Gal(b1-4)GlcNAc(b1-2)Man(a1-3)[Gal(b1-4)GlcNAc(b1-2)Man(a1-6)][GlcNAc(b1-4)]Man(b1-4)GlcNAc(b1-4)[Fuc(a1-6)]GlcNAc
# Method in brief: as §1
# [36] = target: Gal(b1-4)GlcNAc(b1-2)Man(a1-3)[GlcNAc(b1-2)Man(a1-6)]Man(b1-4)GlcNAc(b1-4)GlcNAc
# Method in brief: as §1
# [37] = target: Gal(b1-4)GlcNAc(b1-2)Man(a1-3)[GlcNAc(b1-4)][Gal(b1-4)GlcNAc(b1-2)Man(a1-6)]Man(b1-4)GlcNAc(b1-4)GlcNAc
# Method in brief: as §1
# [38] = target: Gal(b1-4)GlcNAc(b1-2)Man(a1-3)[Man(a1-6)]Man(b1-4)GlcNAc(b1-4)GlcNAc
# Method in brief: as §1
# [39] = target: Gal(b1-4)GlcNAc(b1-2)Man(a1-6)Man(b1-4)GlcNAc(b1-4)GlcNAc
# Method in brief: as §1
binder,measurement,setting,value
"LICBM33A (Lactococcus lactis), Q9CE94 (protein) MKKLLTGLLVAAGLLSVSLLIKTDTVSAHGYVQSPPARGYQGQLDSQSLGWTAAFNIYGNVISNPQSLEAPKGFPECGPADGRIASANGGLGQIGDFVLDNQTSSRWKKTSISTGSNIFTWKYTAPHKTTKWHYYMTKTGWDQNAPLKHSELELIGTINHDGSPATNNLSHTINIPTDRSGYHIVLAVWDVADTSNAFYNVIDINVNNKNASSQVFGPFL",glycan array binding signal (z-score),[1],-0.123
same,glycan array binding signal (z-score),[2],1.73
same,glycan array binding signal (z-score),[3],-0.473
same,glycan array binding signal (z-score),[4],-0.42
same,glycan array binding signal (z-score),[5],-1.08
same,glycan array binding signal (z-score),[6],-0.491
same,glycan array binding signal (z-score),[7],-0.31
same,glycan array binding signal (z-score),[8],-0.015
same,glycan array binding signal (z-score),[9],-0.285
same,glycan array binding signal (z-score),[10],0.089
same,glycan array binding signal (z-score),[11],-0.307
same,glycan array binding signal (z-score),[12],-0.324
same,glycan array binding signal (z-score),[13],-1.9
same,glycan array binding signal (z-score),[14],-0.488
same,glycan array binding signal (z-score),[15],-0.381
same,glycan array binding signal (z-score),[16],-0.556
same,glycan array binding signal (z-score),[17],-0.694
same,glycan array binding signal (z-score),Gal(b1-3)GlcNAc6S,-0.684
same,glycan array binding signal (z-score),[18],0.056
same,glycan array binding signal (z-score),[19],-0.183
same,glycan array binding signal (z-score),[20],-0.751
same,glycan array binding signal (z-score),[21],-0.413
same,glycan array binding signal (z-score),[22],0.285
same,glycan array binding signal (z-score),[23],-0.505
same,glycan array binding signal (z-score),[24],-0.794
same,glycan array binding signal (z-score),[25],-0.369
same,glycan array binding signal (z-score),[26],-0.368
same,glycan array binding signal (z-score),[27],-0.55
same,glycan array binding signal (z-score),Gal(b1-4)Gal,-0.162
same,glycan array binding signal (z-score),[28],0.251
same,glycan array binding signal (z-score),[29],-0.44
same,glycan array binding signal (z-score),Gal(b1-4)Glc,-0.3
same,glycan array binding signal (z-score),Gal(b1-4)Glc6S,-0.084
same,glycan array binding signal (z-score),Gal(b1-4)GlcNAc,0.152
same,glycan array binding signal (z-score),[30],0.602
same,glycan array binding signal (z-score),Gal(b1-4)GlcNAc(b1-2)Man,-1.02
same,glycan array binding signal (z-score),[31],-0.702
same,glycan array binding signal (z-score),[32],0.408
same,glycan array binding signal (z-score),[33],0.253
same,glycan array binding signal (z-score),[34],-0.48
same,glycan array binding signal (z-score),[35],-0.52
same,glycan array binding signal (z-score),[36],-0.11
same,glycan array binding signal (z-score),[37],-0.302
same,glycan array binding signal (z-score),[38],-0.163
same,glycan array binding signal (z-score),[39],2.27
